Data published in PMC4336329 (PLoS ONE, 2015).
Out of some 310,000 compounds screened, about 14,000 (4.5%) showed an effect of 50% or more. Effects have a minus sign here. The list shows a part of the results.

biological target: human ether-à-go-go-related gene (hERG) potassium channel (human, UniProt Q12809); experiment: primary screen, population patch clamp on CHO cells stably expressing hERG
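Further: peak tail current of the secondary pulse compared with the same well before compound.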

Chain of human ether-à-go-go-related gene (hERG) potassium channel (Q12809 whole entry, looked up): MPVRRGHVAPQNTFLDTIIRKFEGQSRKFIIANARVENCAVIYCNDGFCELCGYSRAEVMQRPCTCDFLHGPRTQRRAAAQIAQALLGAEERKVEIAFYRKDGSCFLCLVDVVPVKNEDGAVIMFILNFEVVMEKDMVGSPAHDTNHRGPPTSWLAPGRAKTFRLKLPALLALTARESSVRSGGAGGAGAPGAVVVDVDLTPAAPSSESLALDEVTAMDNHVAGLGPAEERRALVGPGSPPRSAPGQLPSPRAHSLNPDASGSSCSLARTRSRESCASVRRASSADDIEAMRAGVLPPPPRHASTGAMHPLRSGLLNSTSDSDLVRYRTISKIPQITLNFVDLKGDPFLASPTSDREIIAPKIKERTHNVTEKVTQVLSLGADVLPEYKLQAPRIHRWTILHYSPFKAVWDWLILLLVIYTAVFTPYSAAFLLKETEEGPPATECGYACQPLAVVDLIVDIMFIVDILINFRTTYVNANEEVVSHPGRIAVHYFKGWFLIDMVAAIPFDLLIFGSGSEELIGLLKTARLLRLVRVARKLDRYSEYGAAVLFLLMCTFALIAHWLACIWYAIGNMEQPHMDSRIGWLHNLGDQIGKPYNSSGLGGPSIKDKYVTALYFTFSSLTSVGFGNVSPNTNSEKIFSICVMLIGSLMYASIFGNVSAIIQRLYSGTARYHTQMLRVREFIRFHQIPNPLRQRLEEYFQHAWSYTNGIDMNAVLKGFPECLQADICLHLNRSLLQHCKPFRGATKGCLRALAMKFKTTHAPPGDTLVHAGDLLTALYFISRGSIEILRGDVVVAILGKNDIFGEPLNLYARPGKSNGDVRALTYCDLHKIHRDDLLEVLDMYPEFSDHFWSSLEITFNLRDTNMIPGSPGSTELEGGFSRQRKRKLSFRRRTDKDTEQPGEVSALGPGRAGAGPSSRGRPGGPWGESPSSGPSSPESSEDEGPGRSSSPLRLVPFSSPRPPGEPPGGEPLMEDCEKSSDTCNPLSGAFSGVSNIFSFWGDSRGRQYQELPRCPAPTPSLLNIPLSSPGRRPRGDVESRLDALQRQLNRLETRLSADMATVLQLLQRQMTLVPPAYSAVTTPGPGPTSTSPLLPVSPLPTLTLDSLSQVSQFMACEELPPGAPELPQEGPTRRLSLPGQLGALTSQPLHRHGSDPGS

SMILES	hERG current change (%, negative = inhibition) at 10uM
CCC(=O)c1ccc(OCC(=O)Nc2ccc(N3CCOCC3)cc2N2CCOCC2)cc1	4.98%
CCOC(=O)c1ccc(COC(=O)CCc2nc3ccccc3[nH]c2=O)o1	5.57%
Cc1ccc(CNCC2CCCO2)o1 (stereo not drawn)	7.37%
O=C(O)CN1C(=O)S/C(=C\c2ccc3c(c2)OCO3)C1=O	13%
CN1CCN(C(=O)C2(NC(=O)Nc3ccccc3Cl)CCCCC2)CC1	11.9%
O=C(N/N=C/c1ccccc1)c1ccc(N2CCCC2=O)cc1	5.87%
CC(C)c1ccc(OCC(O)CN2CCN(c3ccccn3)CC2)cc1.Cl (stereo not drawn)	-63.7%
O=C(Cc1ccc(F)cc1)Nc1ccc(Cl)cn1	7.09%
Cc1cccc(NC(=O)c2ccoc2C)n1	16.8%
O=C(CNC(=O)c1ccccc1F)NCCc1ccccc1F	1.09%
O=C(CCn1c(=O)oc2cc(Cl)ccc21)Nc1ccc(O)cc1	-15.3%
O=C(Cn1nc(-c2ccccc2)c2ccccc2c1=O)Nc1cccnc1	2.61%
CCc1ccc(N2CC(C(=O)OCC(=O)NNC(=O)c3ccccc3)CC2=O)cc1 (stereo not drawn)	4.54%
COc1ccc(CCNC(=O)C2CCC(=O)N2CCc2ccccc2)cc1OC (stereo not drawn)	12.4%
CCCCC(=O)NC(=O)NC(c1ccccc1)c1ccccc1	-2.42%
O=C(CN1C(=O)NC2(CCCCCCC2)C1=O)Nc1ccc(Br)cc1	5.19%
CC(C)C(C)(C#N)NC(=O)CSc1nc2scc(-c3ccc(F)cc3)c2c(=O)n1Cc1ccccc1 (stereo not drawn)	8.08%
COCCNC(=S)NNC(=O)CSCc1ccc(Cl)cc1Cl	9.06%
COc1ccc(C)cc1S(=O)(=O)N(CC(=O)N1CCCC1)c1ccc(C)cc1	-53%
Cc1nc2cc(N)ccc2n1-c1ccccc1	0.742%
COCCNC(=O)CN1CCN(C(c2ccccc2)c2ccccc2)CC1.O=C(O)C(=O)O	-7.42%
CCOC(=O)c1oc2cc(OCC(N)=O)ccc2c(=O)c1-c1ccc(OC)c(OC)c1	14.8%

SMILES	hERG current change (%, negative = inhibition) at 10uM
Cc1ccc(Cn2nnc3c(=O)n(CC(=O)NCC4CCCO4)cnc32)cc1 (stereo not drawn)	-12.6%
COc1ccc(CN2C(=NC(=O)CCC3CCCC3)SC3CS(=O)(=O)CC32)cc1 (stereo not drawn)	19.7%
O=C(COc1ccc2ccccc2c1)Nc1cccc2cccnc12	19.3%
O=C(O)c1cc(NC(=O)c2ccc(Br)cc2)cc(NC(=O)c2ccc(Br)cc2)c1	17.6%
CCOC(=O)N1CCN(C(=O)C2CCC(CNS(=O)(=O)c3ccccc3)CC2)CC1 (stereo not drawn)	3.18%
CCCCN(C)CCN1C(=O)C2C(C(=O)Nc3ccc(OC)cc3)C3C=CC2(O3)C1C(=O)NC1CCCCC1 (stereo not drawn)	-8.93%
CCC(CC)c1nnc(NC(=O)Cc2ccccc2[N+](=O)[O-])s1	-8.11%
COc1ccccc1CCc1nnc(CCC(=O)NCC(C)Oc2cccnc2)o1 (stereo not drawn)	-9%
COc1cc(OC)cc(N(C(=O)C2COc3ccccc3O2)C(C(=O)NC2CCCCC2)c2ccc(O)cc2)c1 (stereo not drawn)	8.29%
O=C(NCc1cccc(CNC(=O)C(=O)NCC2CCCO2)c1)C(=O)NCC1CCCO1 (stereo not drawn)	13.4%
O=C(COc1ccccc1Cl)NC(=O)NC1CCCC1	5.55%
COc1ccc2c(CC(=O)OCC(=O)NC(N)=O)coc2c1	0.524%
CCNS(=O)(=O)c1ccc(NC(=O)Cc2ccc(F)cc2)cc1	2.16%
O=C(CSc1nc(-c2ccc(F)cc2)cs1)NCCN1C(=O)CSC1=O	1.84%
Cn1c(=O)c2nnn(/N=C(\c3ccccc3)C3CC3)c2n(C)c1=O	-22.3%
CC(=O)Nc1ccc(SC(C)C(=O)NC(N)=O)cc1 (stereo not drawn)	9.73%
COc1ccc(C2C(C(=O)NCc3ccccn3)c3cc(OC)c(OC)cc3C(=O)N2C)cc1 (stereo not drawn)	-16.6%
O=C(CCn1c(=S)[nH]c2ccccc2c1=O)Nc1cccc(Cl)c1	8.62%
O=C(CSc1n[nH]c(-c2ccncc2)n1)Nc1ccc(Cl)cc1	10.6%
CC(NC(=O)c1ccccc1Cl)C(=O)N1CCN(Cc2ccc3c(c2)OCO3)CC1 (stereo not drawn)	5.55%
Fc1ccc(CN2CCN(c3ncccn3)CC2)c(F)c1	23.3%
C/C(=N/OC(=O)c1c(-c2c(Cl)cccc2Cl)noc1C)c1cnccn1	-1.72%

SMILES	hERG current change (%, negative = inhibition) at 10uM
CC(=O)Nc1ccc(SCCCC(=O)c2ccccc2)cc1	2.69%
Cn1c(SCc2nc3ccccc3s2)nnc1-c1cccs1	-36%
O=C(c1ccccc1)N1CCN(C(=O)c2ccc3c(c2)OCCO3)CC1	-1.64%
Cc1nc2nc(C)n(-c3ccccc3)c2s1	9.4%
CCCC(=O)Nc1ccc2c(c1)c1ccccc1n2CC	9.23%
CSc1nnc(Cc2cc(=O)[nH]c(=O)[nH]2)n1-c1cc(C)ccc1C	-7.11%
CCc1c(C)nc2cc(-c3ccccc3)[nH]n2c1=O	-8.55%
CCCC1=C(C(=O)OCC)C(c2cccnc2)n2nc(C)nc2N1 (stereo not drawn)	13%
CCOC(=O)c1ccc(NC(=O)NC2CCN(CC(=O)NCc3ccc4c(c3)OCO4)CC2)cc1	-8.69%
Cc1ccc(/C=N/N=C/c2ccc(C)cc2)cc1	10.8%
COCCNC(C(=O)Nc1ccc([N+](=O)[O-])cc1Br)c1ccccc1 (stereo not drawn)	-74%
Cc1ccc2c(c1)NC(=O)C(CC(=O)NCCCN1CCc3ccccc3C1)O2 (stereo not drawn)	-65.7%
O=C1c2cccc3cccc(c23)C(=O)N1OS(=O)(=O)c1ccc(Cl)cc1	14.2%
CCCCC(O)(CCCC)C(=O)NN(C(=O)OC)c1ccc(C)cc1	2.88%
CCn1c(=O)c2sccc2n(CC(=O)NCCC2=CCCCC2)c1=O	3.85%
S=c1[nH]nc(-c2cc(-c3ccccc3)n[nH]2)n1/N=C/c1c2ccccc2cc2ccccc12	7.84%
Cc1ccsc1CN1CCC(C(=O)NCc2ccccc2Cl)CC1.O=C(O)C(=O)O	-27%
COc1cc(C(=S)N2CCOCC2)cc(OC)c1OC(=O)c1ccc(F)cc1	-3.47%
O=C(NCc1cccc(F)c1)c1ccc(N2C(=O)Cn3c(cc4sccc43)C2=O)cc1	6.99%
Cc1oc(-c2ccccc2)nc1C(=O)OCC(=O)NC(=O)NCC(C)C	8.36%
CCOc1cc(NC(=O)c2ccco2)c(OCC)cc1NC(=O)c1cc(OC)c(OC)c(OC)c1	17.2%
COc1ccc(CNc2nc3c(c(=O)[nH]c(=O)n3C)n2Cc2ccccc2)cc1	28.3%

SMILES	hERG current change (%, negative = inhibition) at 10uM
CCS(=O)(=O)N1CCC(NC(=O)C(Cc2cc(OC)ccc2OC)NC(C)=O)CC1 (stereo not drawn)	5.93%
C=CC[N+]1(CC(=O)NCc2ccc(NC(C)=O)cc2)CCOCC1.[Br-]	4.09%
CCOC(=O)Cc1csc(NC(=O)CCc2ccc(S(=O)(=O)N3CCOCC3)cc2)n1	-8.88%
O=P(CCC(F)(F)F)(CCC(F)(F)F)CCC(F)(F)F	10.4%
COc1ccc2oc(=O)c(C(=O)NCc3ccc(F)cc3)cc2c1	2.69%
O=[N+]([O-])c1ccccc1/C=N/Nc1nc(N2CCCC2)nc(N2CCCC2)n1	23.1%
COC1(OC)C(/C=C/c2ccc(C)cc2)C(C#N)(C#N)C1(OC)OC (stereo not drawn)	-10.4%
COc1cc(C2NC(=O)NC(C)=C2C(=O)OC2CCCCC2)cc(Cl)c1O (stereo not drawn)	-8.25%
CCC(CCC(=O)Nc1ccn(-c2ccccc2)n1)C(=O)O (stereo not drawn)	-0.849%
O=C(CCc1ccc(S(=O)(=O)NCc2ccccc2)cc1)NCc1cccnc1	-7.01%
COc1cc(/C=C2/C(=O)NN(c3ccc(Cl)cc3)C2=O)cc(Br)c1O	19.7%
COc1ccccc1CCNC(=O)C(=O)Nc1cc2c3c(c1)CC(=O)N3CCC2	-27.7%
CC1CCN(C(=O)c2cccc(S(=O)(=O)N3CCN(c4ccccc4)CC3)c2)CC1	2.41%
O=C(NCc1ccccc1)C1(CC2CC(c3ccccc3)=NO2)CCNCC1 (stereo not drawn)	-7.21%
Cc1ccc2[nH]c(CNC(=O)c3ccc(F)cc3)cc2c1	6.03%
CCOc1ccc(NC(=O)Nc2cc(C)on2)cc1	11.8%
Cc1cccc(C)c1OCCn1nnc2ccccc21.Cl	9.21%
CCOC(=O)C1CCN(c2ncnc3c2c(-c2ccccc2)cn3-c2ccc(C)cc2)CC1	19.4%
CN(Cc1ccccc1)Cc1nc2c(c(=O)n(C)c(=O)n2C)n1CCCc1ccccc1	-50.3%
CC(C)(C)CN1C(N)=NC[C@H]1Cc1ccc(O)cc1	17.5%
Cc1nc(N2CCOCC2)nc(N2CCCC2)c1[N+](=O)[O-]	3.43%
